Data as given in the supplement of paper PMC3334620.
Over roughly 33,000 sequences, “E-score (-0.5 to 0.5)” has its median near -0.035; the highest 2% begin near 0.34. The list shows a part of the results.

biological target: T1, Mot3 (UniProt P54785); test: PBM E-score (8-mer binding enrichment) (E-score (-0.5 to 0.5)); higher = stronger / more preferred TF binding; most listed sequences are background and not binding sites; details: protein concentration: 200 nM; construct: GST-full length
T1 sequence: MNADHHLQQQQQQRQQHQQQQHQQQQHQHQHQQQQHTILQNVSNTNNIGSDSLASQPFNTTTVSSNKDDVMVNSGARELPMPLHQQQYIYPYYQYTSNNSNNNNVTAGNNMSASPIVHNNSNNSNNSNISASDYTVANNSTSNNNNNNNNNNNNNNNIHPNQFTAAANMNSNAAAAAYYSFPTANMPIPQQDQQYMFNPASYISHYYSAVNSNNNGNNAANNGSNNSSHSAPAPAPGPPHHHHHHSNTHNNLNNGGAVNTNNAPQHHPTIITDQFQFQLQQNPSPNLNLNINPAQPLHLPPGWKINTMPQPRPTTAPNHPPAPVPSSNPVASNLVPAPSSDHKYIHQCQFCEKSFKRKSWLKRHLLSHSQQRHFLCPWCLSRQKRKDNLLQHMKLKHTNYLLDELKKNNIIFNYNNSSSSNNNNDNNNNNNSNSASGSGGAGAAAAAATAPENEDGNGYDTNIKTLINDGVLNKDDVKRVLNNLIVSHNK
Method in brief: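 Yeast transcription factors, full-length or as DNA-binding domains, were expressed with a GST tag using PURExpress in vitro transcription/translation. At about 100-200 nM they were applied to universal all-10-mer Agilent arrays, double-stranded by primer extension on fresh or once-stripped slides. Fluorescent anti-GST detected bound protein, and masliner normalised the scans. E-scores for ungapped eight-base words, pooled with reverse complements, came from the Universal PBM Analysis Suite.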

Sequence	PBM E-score
GTTGCAAA	0.111
AATTAATC	0.00158
AATAGCCA	-0.0713
GTTGGTAA	0.267
ACGTCCAA	-0.00856
AAGGGATG	0.0103
TCCACCGA	-0.198
CGCTGCTA	-0.289
GAGGCAAC	0.435
ATGAGCGG	-0.126
ACGATTCG	-0.0523
GGCTTAAC	0.109
CGTGGAGA	-0.321
CCCCTCGA	-0.349
CAATGGGC	-0.0162
CCCAGGTA	0.0242
AGAGAGTA	0.0443
TCTGGAAA	-0.0747
GCTTATAC	-0.0279
CATTCCCA	-0.133
ATGCCGCA	-0.0433
ACCTGGAA	0.239

Sequence	PBM E-score
GAGATTGA	-0.0729
ATATCTGA	0.0625
ACCATAAG	-0.0852
AGACGACA	0.00758
GGGCGTAC	-0.0872
GAATATTA	0.116
TTACCTAA	0.285
GTTGAAGA	0.00717
CCAATGCG	-0.169
ACCATTTA	0.0969
CTGCGGTA	-0.118
TTCACAAA	0.019
CAGGGATA	-0.109
CAGACGTA	0.101
GACCAAGA	-0.0847
ACGCCCCC	-0.0398
CGCACGTA	0.154
GCTCATCC	-0.173
CCCAGCTA	-0.154
AAACCGCC	-0.0324
GAACTCGC	-0.0603
TCTCAACA	0.219

Sequence	PBM E-score
AGAGTAAT	0.199
TCATTGCA	-0.0218
AATTAGCG	-0.0336
AGAACGTA	0.225
ACTTCCAG	-0.235
AGTAGCCG	-0.173
CCCGCGCC	-0.169
ACCGCTGG	-0.214
CAATGCGA	-0.0378
CGCCCAAC	-0.256
AGGGACAG	-0.31
CCACCCCG	-0.259
CCTCAAAC	-0.114
AGGTCCGA	-0.19
CTAGCTCC	0.0198
GAAGAGGA	-0.265
ACTCTTCT	-0.114
CCCTCCCC	-0.254
AACAATGA	0.142
AATGTCTC	-0.0809
ATTCTAAG	0.0116
ACTGACAG	0.0192

Sequence	PBM E-score
CAGGCGTC	0.212
ATGAACAG	0.0357
ATGCCGTG	0.0853
AAGCTAGC	-0.171
CCATAATC	-0.18
AGGCTGAC	-0.329
AGGTTTCC	0.13
GTTATTTA	0.287
AAAGCTGA	0.171
AGCTTAGC	-0.00961
CAATCGAC	0.0676
ACGAGAGT	-0.0612
GTGAAAAA	0.155
CCCTTAGG	-0.123
AGCGTTAG	-0.108
ATGAATAG	-0.0885
AGAGGAAC	0.0727
CTCCTCCA	-0.0499
AGAGTGCG	-0.0765
AGATCTAA	-0.00734
